The values that follow come from paper PMC6919601, “Identification of Plasmodium dipeptidyl aminopeptidase allosteric inhibitors by high throughput screening” (PLoS ONE, 2019).

Each structure is given as a SMILES string. Among all 110,000 compounds or so, about 230 (0.21%) showed an effect of 50% or more. The list shows a part of the results.
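Note: 30 min substrate incubation versus DMSO and 10 µM JCP410 controls.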

Sequence of DPAP1 (Q8IIJ9 whole entry, looked up): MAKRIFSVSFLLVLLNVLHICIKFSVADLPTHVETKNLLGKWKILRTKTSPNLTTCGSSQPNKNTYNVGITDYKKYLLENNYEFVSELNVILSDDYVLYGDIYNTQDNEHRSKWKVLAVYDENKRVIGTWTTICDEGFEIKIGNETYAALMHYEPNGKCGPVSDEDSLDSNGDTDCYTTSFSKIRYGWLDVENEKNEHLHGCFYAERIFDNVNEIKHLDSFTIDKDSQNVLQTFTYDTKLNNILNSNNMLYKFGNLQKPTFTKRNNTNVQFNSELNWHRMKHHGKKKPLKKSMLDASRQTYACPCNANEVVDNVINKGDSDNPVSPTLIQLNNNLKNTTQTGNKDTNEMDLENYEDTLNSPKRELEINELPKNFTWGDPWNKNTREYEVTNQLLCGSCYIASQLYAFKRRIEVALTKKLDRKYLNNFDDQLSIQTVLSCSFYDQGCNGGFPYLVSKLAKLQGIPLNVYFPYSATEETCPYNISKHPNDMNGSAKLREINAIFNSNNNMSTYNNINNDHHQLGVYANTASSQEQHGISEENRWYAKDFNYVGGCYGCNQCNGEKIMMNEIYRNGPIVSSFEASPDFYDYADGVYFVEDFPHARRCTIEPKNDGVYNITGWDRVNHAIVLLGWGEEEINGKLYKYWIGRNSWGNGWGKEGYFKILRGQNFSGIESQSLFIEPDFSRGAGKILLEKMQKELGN

The assay has as its target DPAP1 (Plasmodium falciparum, UniProt Q8IIJ9). As to the kind of experiment: primary screen, percent inhibition; read by cleavage of a fluorogenic dipeptide substrate; higher = more effect of the substance. Further details: species or system P. falciparum D10 trophozoite lysates; single well.
Regarding `Cc1ccc(S(=O)(=O)NCC2CCC(C(=O)NC(C)c3ccc4c(c3)OCCO4)CC2)cc1` (stereo not drawn), the “% Inhibition @ 10 uM” value came to 3.93%.

With `C=CCc1c(C)nc(-c2ccccc2)nc1Nc1ccc([N+](=O)[O-])cc1`, the “% Inhibition @ 10 uM” value was -0.712%.

Turning to `Cc1ccc(-c2noc(-c3nnn(-c4ccccc4Cl)c3N)n2)cc1`, the “% Inhibition @ 10 uM” value is -3.58%.

For the compound `COC(=O)c1nc2n(n1)C(c1cc(OC)ccc1OC)C=C(c1cccc(Br)c1)N2` (stereo not drawn), the “% Inhibition @ 10 uM” value was found to be 1.73%.

Consider `CCOC(=O)NCCc1cc(OC)c(OC)cc1C(C)=O`, for which the “% Inhibition @ 10 uM” value amounted to 4.11%.

Consider `COc1cccc(NC(=O)Nc2ccc(Cl)c(Cl)c2)c1`, for which the “% Inhibition @ 10 uM” value was found to be 0.316%.

On to `O=C(CN1C(=O)S/C(=C/c2cccc(F)c2)C1=O)Nc1ccccc1`, for which the “% Inhibition @ 10 uM” value is given as -9.11%.

With `CCc1nn(C(C)C(=O)NC(C)CCc2ccccc2)c(=O)c2cc3occc3n12` (stereo not drawn), the “% Inhibition @ 10 uM” value is reported as -3.79%.

On to `CCOC(=O)c1sc(NC(=O)C(C)Oc2ccccc2Br)c(C(=O)OCC)c1C` (stereo not drawn), for which the “% Inhibition @ 10 uM” value is 0.611%.

As to `Oc1ccc2[nH]cc(CCNC(c3ccccc3)(c3ccccc3)c3ccccc3)c2c1`, the “% Inhibition @ 10 uM” value amounted to 6.24%.

`CS(=O)(=O)C1=NN2C(=N)/C(=C\c3ccc(SCc4ccccc4)o3)C(=O)N=C2S1`: the “% Inhibition @ 10 uM” value is 6.04%.

Consider `O=C(CN(c1cccc(Br)c1)S(=O)(=O)c1ccccc1)N1CCCCCC1`, for which the “% Inhibition @ 10 uM” value was found to be 0.956%.

As for `COCCN1C(=O)c2ccccc2C(C(=O)N2CCCC2)C1c1ccc(F)cc1` (stereo not drawn), the “% Inhibition @ 10 uM” value is given as 0.457%.

As to `CCO/C(O)=C1\C(C)=NC2=C(C(=O)CCC2)C1c1ccc(Cl)c(Cl)c1` (stereo not drawn), the “% Inhibition @ 10 uM” value was -1.56%.

As for `COc1cc(Br)cc2cc(C(=O)NCc3ccncc3)c(=O)oc12`, the “% Inhibition @ 10 uM” value is on record as -0.0108%.

As to `O=C(CSc1ccccn1)Nc1nc(-c2ccccc2)cs1`, the “% Inhibition @ 10 uM” value was determined as 2.24%.

On to `C=CCSc1ncc(Cl)c(C(=O)Nc2nc3ccc(F)cc3s2)n1`, for which the “% Inhibition @ 10 uM” value is -0.946%.

As for `COc1ccc2c(CNC3CCCC3)c(C(=O)O)n(Cc3ccc(F)cc3Cl)c2c1`, the “% Inhibition @ 10 uM” value is given as 2.54%.

Consider `N#Cc1c(Cl)nc(N2CCN(C(=O)c3ccccc3)CC2)c(Cl)c1Cl`, for which the “% Inhibition @ 10 uM” value was determined as 1.34%.

As for `N#Cc1c(-c2ccc(Cl)cc2)cc(C2CC2)nc1SCC(N)=O`, the “% Inhibition @ 10 uM” value is 7.15%.

For the compound `O=C(Nc1ccc(C(=O)N2CCOCC2)cc1)c1cccc(Cl)c1`, the “% Inhibition @ 10 uM” value was 1.52%.

Consider `CS(=O)(=O)CC1CC1(Cl)Cl` (stereo not drawn), for which the “% Inhibition @ 10 uM” value is 1.63%.

Turning to `Cc1ccccc1S(=O)(=O)Cc1ccc(C(=O)NC2CCCc3ccccc32)o1` (stereo not drawn), the “% Inhibition @ 10 uM” value came out at 3.47%.

Take `COc1ccc(C2C(C#N)=C(N)OC3=C2C(=O)CCC3)cc1CSc1ccccn1` (stereo not drawn): the “% Inhibition @ 10 uM” value is listed as -4.4%.

With `Cc1ccc(-n2nc(C)c(/C=N/c3ccc(S(N)(=O)=O)cc3)c2O)c(C)c1`, the “% Inhibition @ 10 uM” value is -3.26%.

Regarding `COc1ccc(/C=C(\NC(=O)c2ccccc2)C(=O)NCc2ccco2)cc1`, the “% Inhibition @ 10 uM” value is reported as -0.615%.

As to `CCN1CCCC1CNC(=O)c1sc2nc(C)cc(C)c2c1-n1cccc1` (stereo not drawn), the “% Inhibition @ 10 uM” value stood at 3.87%.

On to `CC(C)N(Cc1nc(-c2ccc(Cl)cc2)no1)C(=O)C12CC3CC(CC(C3)C1)C2`, for which the “% Inhibition @ 10 uM” value came to 4.95%.

Take `COc1ccc(-n2nnnc2C2CCNCC2)cc1`: the “% Inhibition @ 10 uM” value is on record as -3.49%.

On to `O=C(c1cccs1)N1CCCc2ccccc21`, for which the “% Inhibition @ 10 uM” value is listed as -4.21%.

Consider `CN(C)CCCN(C(=O)COc1ccccc1)c1nc2ccc(F)cc2s1`, for which the “% Inhibition @ 10 uM” value is 5.62%.

Consider `CCCCCCN1C(=O)C(O)=C(C(C)=O)C1c1ccc(OC)c(OC)c1` (stereo not drawn), for which the “% Inhibition @ 10 uM” value is -0.467%.

For the compound `CCOC(=O)c1c(NCc2ccc(N(C)C)cc2)sc2c1CCCC2`, the “% Inhibition @ 10 uM” value is on record as 5.35%.

With `Cn1c(=O)n(CC(=O)Nc2ccc(OC(F)(F)Cl)cc2)c2ccccc21`, the “% Inhibition @ 10 uM” value was -1.52%.

Take `CC(C)(C)c1ccc(-c2nnc(-c3sc4ccccc4c3Cl)o2)cc1`: the “% Inhibition @ 10 uM” value was 0.219%.

For `CC1CCN(c2nn3c(=O)c(C(=O)N4CCN(Cc5ccc6c(c5)OCO6)CC4)cnc3s2)CC1`, the “% Inhibition @ 10 uM” value is -4.75%.

Regarding `NC(=O)C1(N2CCCCC2)CCN(S(=O)(=O)c2ccc(OC(F)(F)F)cc2)CC1`, the “% Inhibition @ 10 uM” value is listed as 1%.

Take `CC(C)(C)C(/C=C\c1ccc(Cl)cc1Cl)n1nnnc1C1(Nc2ccc(Cl)cc2)CCCC1` (stereo not drawn): the “% Inhibition @ 10 uM” value is -3.98%.

Turning to `CCOC(=O)c1[nH]c(C)c(C(=O)NCc2ccccn2)c1C`, the “% Inhibition @ 10 uM” value is reported as -5.27%.

For the compound `CCOc1ccc(CC(=O)Nc2ccc(CC#N)cc2)cc1OCC`, the “% Inhibition @ 10 uM” value is given as 2.01%.

In the case of `COc1cccc(N(CC(=O)NCC2CCCO2)S(=O)(=O)c2ccc(C)cc2)c1` (stereo not drawn), the “% Inhibition @ 10 uM” value was found to be 2.42%.

As for `Cc1nn(C(=O)CCC(=O)NCCc2ccccc2)c2ccccc12`, the “% Inhibition @ 10 uM” value is on record as -4.71%.

`CC(C)c1ccc(S(=O)(=O)n2nnc3ccccc32)cc1`: the “% Inhibition @ 10 uM” value amounted to 0.146%.

In the case of `Cc1cccc(C(=O)Nc2ccc(OC(F)(F)F)cc2)c1`, the “% Inhibition @ 10 uM” value was found to be 1.57%.

Consider `O=C(CCN1C(=O)c2ccccc2S1(=O)=O)Nc1cccc(C(F)(F)F)c1`, for which the “% Inhibition @ 10 uM” value is reported as 4.96%.

On to `COc1ccc2ccccc2c1CNCCNC(=O)c1nonc1N`, for which the “% Inhibition @ 10 uM” value is -5.33%.

Take `CCn1cc(CNC(=O)Nc2ccc(C)cc2)c(C)n1`: the “% Inhibition @ 10 uM” value amounted to 0.605%.

Regarding `CN(C)CCN(C)C1CCC(c2ccccc2)CC1` (stereo not drawn), the “% Inhibition @ 10 uM” value was -1.5%.
